Data reported in article PMC9911399, “Two distinct binding modes provide the RNA-binding protein RbFox with extraordinary sequence specificity”.
Residue numbers refer to the chain shown, from its start. This is one part of the list.

T1: RBFOX1 RRM (Homo sapiens, UniProt Q9NWB1 109-208)
T1 sequence: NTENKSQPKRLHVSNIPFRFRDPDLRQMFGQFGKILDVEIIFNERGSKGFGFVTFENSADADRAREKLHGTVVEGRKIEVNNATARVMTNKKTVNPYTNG

B1: AUGAAUG (DNA:RNA)
RNA: GGGAGACCGGAAUUCAGAUUGUCCAUGAAUGUUAAAUCCCGUCGUAGCCACCA
DNA 1: CAATCTGAATTCCGGTCTCCC
DNA 2: TGGTGGCTACGACGGGATT
B2: AUAACGC (DNA:RNA)
RNA: B1 RNA with G27A, A29C, U30G, G31C
DNA 1: CAATCTGAATTCCGGTCTCCC
DNA 2: TGGTGGCTACGACGGGATT
B3: GGUUUGG (DNA:RNA)
RNA: B1 RNA with A25G, U26G, G27U, A28U, A29U, U30G
DNA 1: CAATCTGAATTCCGGTCTCCC
DNA 2: TGGTGGCTACGACGGGATT
B4: UGCAAUA (DNA:RNA)
RNA: B1 RNA with A25U, U26G, G27C, G31A
DNA 1: CAATCTGAATTCCGGTCTCCC
DNA 2: TGGTGGCTACGACGGGATT
B5: AGCGCAC (DNA:RNA)
RNA: B1 RNA with U26G, G27C, A28G, A29C, U30A, G31C
DNA 1: CAATCTGAATTCCGGTCTCCC
DNA 2: TGGTGGCTACGACGGGATT
B6: GGCGAUC (DNA:RNA)
RNA: B1 RNA with A25G, U26G, G27C, A28G, G31C
DNA 1: CAATCTGAATTCCGGTCTCCC
DNA 2: TGGTGGCTACGACGGGATT
B7: CUUACCG (DNA:RNA)
RNA: B1 RNA with A25C, G27U, A29C, U30C
DNA 1: CAATCTGAATTCCGGTCTCCC
DNA 2: TGGTGGCTACGACGGGATT
B8: UAUACAC (DNA:RNA)
RNA: B1 RNA with A25U, U26A, G27U, A29C, U30A, G31C
DNA 1: CAATCTGAATTCCGGTCTCCC
DNA 2: TGGTGGCTACGACGGGATT
B9: UCGUUGA (DNA:RNA)
RNA: B1 RNA with A25U, U26C, A28U, A29U, U30G, G31A
DNA 1: CAATCTGAATTCCGGTCTCCC
DNA 2: TGGTGGCTACGACGGGATT
B10: AUGCAUC (DNA:RNA)
RNA: B1 RNA with A28C, G31C
DNA 1: CAATCTGAATTCCGGTCTCCC
DNA 2: TGGTGGCTACGACGGGATT
B11: UGGUGAU (DNA:RNA)
RNA: B1 RNA with A25U, U26G, A28U, A29G, U30A, G31U
DNA 1: CAATCTGAATTCCGGTCTCCC
DNA 2: TGGTGGCTACGACGGGATT
B12: CUUACAA (DNA:RNA)
RNA: B1 RNA with A25C, G27U, A29C, U30A, G31A
DNA 1: CAATCTGAATTCCGGTCTCCC
DNA 2: TGGTGGCTACGACGGGATT
B13: UAAUAUA (DNA:RNA)
RNA: B1 RNA with A25U, U26A, G27A, A28U, G31A
DNA 1: CAATCTGAATTCCGGTCTCCC
DNA 2: TGGTGGCTACGACGGGATT
B14: AGCGGUC (DNA:RNA)
RNA: B1 RNA with U26G, G27C, A28G, A29G, G31C
DNA 1: CAATCTGAATTCCGGTCTCCC
DNA 2: TGGTGGCTACGACGGGATT
B15: GGGAGGG (DNA:RNA)
RNA: B1 RNA with A25G, U26G, A29G, U30G
DNA 1: CAATCTGAATTCCGGTCTCCC
DNA 2: TGGTGGCTACGACGGGATT
B16: AACCUGA (DNA:RNA)
RNA: B1 RNA with U26A, G27C, A28C, A29U, U30G, G31A
DNA 1: CAATCTGAATTCCGGTCTCCC
DNA 2: TGGTGGCTACGACGGGATT
B17: AGAAGAG (DNA:RNA)
RNA: B1 RNA with U26G, G27A, A29G, U30A
DNA 1: CAATCTGAATTCCGGTCTCCC
DNA 2: TGGTGGCTACGACGGGATT
B18: GUCUCGC (DNA:RNA)
RNA: B1 RNA with A25G, G27C, A28U, A29C, U30G, G31C
DNA 1: CAATCTGAATTCCGGTCTCCC
DNA 2: TGGTGGCTACGACGGGATT
B19: GGAAUCG (DNA:RNA)
RNA: B1 RNA with A25G, U26G, G27A, A29U, U30C
DNA 1: CAATCTGAATTCCGGTCTCCC
DNA 2: TGGTGGCTACGACGGGATT
B20: AGCCAGU (DNA:RNA)
RNA: B1 RNA with U26G, G27C, A28C, U30G, G31U
DNA 1: CAATCTGAATTCCGGTCTCCC
DNA 2: TGGTGGCTACGACGGGATT

Molecular target: T1, RBFOX1 RRM
Test: EMSA; HiTS-Eq, 1 nM pool, 10 min; buffer printed only for the single-RNA assays: 10 mM Tris pH 7.5, 150 mM NaCl, 3.4 mM EDTA, 0.001% NP-40, 30 C
Conditions: tags: His6 N-terminal (pET28a); label: 5' 32P
Summary of the method: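 Purified wild-type or mutant RbFox RRM at increasing concentrations was equilibrated with 1 nM of 5′-radiolabelled RNA carrying 7 randomized nucleotides for 10 min in 50 µL. Unbound RNA was separated by 8% native PAGE and sequenced. Relative association constants came from read-count changes of each RNA species compared with the control reaction, normalised to the cognate motif.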

Row | Binder | binding signal
1 | B1 | 0.0232 KA relative to UGCAUGU
2 | B2 | 0.000892 KA relative to UGCAUGU
3 | B3 | 0.0258 KA relative to UGCAUGU
4 | B4 | 0.00605 KA relative to UGCAUGU
5 | B5 | 0.00865 KA relative to UGCAUGU
6 | B6 | 0.0111 KA relative to UGCAUGU
7 | B7 | 0.00206 KA relative to UGCAUGU
8 | B8 | 0.000527 KA relative to UGCAUGU
9 | B9 | 0.019 KA relative to UGCAUGU
10 | B10 | 0.015 KA relative to UGCAUGU
11 | B11 | 0.0192 KA relative to UGCAUGU
12 | B12 | 0.000713 KA relative to UGCAUGU
13 | B13 | 0.00451 KA relative to UGCAUGU
14 | B14 | 0.018 KA relative to UGCAUGU
15 | B15 | 0.0121 KA relative to UGCAUGU
16 | B16 | 0.00307 KA relative to UGCAUGU
17 | B17 | 0.0102 KA relative to UGCAUGU
18 | B18 | 0.0149 KA relative to UGCAUGU
19 | B19 | 0.0216 KA relative to UGCAUGU
20 | B20 | 0.0119 KA relative to UGCAUGU
